Measurements published in patent US20190314531A1 (Johns Hopkins, published 2019).

Target: T1, recombinant human PD-L1(B7-H1)-His-tag protein (catalog #9049-B7, R&D systems) (human, UniProt Q9NZQ7 in part)
T1 construct: Bought; also called PD-L1-His-tag; not shown: His-tag
Assay: FRET binding assay, PD-L1-His-tag titrated on PD-1-Ig

- Kd: 69.7 nM
B1: Recombinant Human PD-1 Fc chimera Protein (catalog #1086-PD-050, R&D systems) (Fc fusion)
chain: not shown
notes: Bought; also called PD-1-Ig; not shown: Fc part (detected with anti-human IgG)
